Test results reported in the supplement of paper PMC3334620.
Whole data set: some 33,000 sequences, median “E-score (-0.5 to 0.5)” near -0.01, cut for the highest 2% near 0.26. The list shows a part of the results.

Target: Ste12 (UniProt P13574)
Experiment: PBM E-score (8-mer binding enrichment) (E-score (-0.5 to 0.5)); higher = stronger / more preferred TF binding; most listed sequences are background and not binding sites
Settings: protein concentration: 200 nM; construct: GST-DNA-binding domain
Description: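 Universal 'all 10-mer' protein binding microarrays (Agilent AMADID 015681) probed with GST-tagged S. cerevisiae TFs (full-length or DBD) made by in vitro transcription/translation (PURExpress), about 100-200 nM. Bound TF was detected with fluorescent anti-GST. Each ungapped 8-mer (which stands for itself and its reverse complement) is scored by the PBM enrichment score (E-score), a modified Wilcoxon-Mann-Whitney statistic from -0.5 to +0.5, computed with the Universal PBM Analysis Suite. Scale: above 0.35 generally sequence-specific binding.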

Going from AGAGAGCA to ACTTATGC, the “PBM E-score” value rises from -0.111 to -0.0582.

Going from GAGATATC to CGCCGTAG, the “PBM E-score” value falls from 0.0245 to -0.146.

Compared with GGCGAACC, CAAAACTC is higher in “PBM E-score” value: -0.0904 for the first, 0.123 for the second.

First: TCCCGCGA
Second: TGATGACA
The “PBM E-score” value of the first is lower: 0.0701 for the first, 0.0917 for the second.

Compared with GCCCGCTA, CGAATTAC is higher in “PBM E-score” value: -0.161 for the first, 0.0656 for the second.

Going from CGACGCAA to TCGCCGCA, the “PBM E-score” value falls from -0.0452 to -0.122.

Going from ATAGCAAC to AAGAGGGA, the “PBM E-score” value rises from -0.0859 to -0.0411.

Compared with AGAGACGG, AGGTGTGA is higher in “PBM E-score” value: 0.0373 for the first, 0.146 for the second.

First: AGTCTGTC
Second: ACTAGTGG
The “PBM E-score” value of the first is lower: -0.138 for the first, -0.00611 for the second.

Going from GCGGTCAC to AGGTCACA, the “PBM E-score” value rises from -0.0712 to 0.0484.

Compared with AATGACAA, CAGGGCGG is lower in “PBM E-score” value: 0.034 for the first, -0.0841 for the second.

Going from AACAACGA to AGGACCTA, the “PBM E-score” value falls from -0.0132 to -0.0686.

First: TAGGCGAA
Second: AGCGATAG
The “PBM E-score” value of the first is higher: 0.0575 for the first, -0.272 for the second.

Going from CCATGTTA to CCTCGTAA, the “PBM E-score” value rises from 0.0685 to 0.0987.

First: CGCAGGCG
Second: ACGAGACC
The “PBM E-score” value of the first is lower: -0.138 for the first, 0.0387 for the second.

Compared with CCAGTTTA, AACTTCTA is lower in “PBM E-score” value: 0.118 for the first, -0.154 for the second.

First: TAATACCA
Second: AGCGTCGG
The “PBM E-score” value of the first is higher: 0.122 for the first, 0.00249 for the second.

First: ACAGAGAG
Second: AACCAATT
The “PBM E-score” value of the first is lower: -0.158 for the first, 0.162 for the second.

Going from AAGCTAGT to GCTGTCCA, the “PBM E-score” value rises from 6e-05 to 0.0328.

First: CTTTGAAA
Second: TCAGTCCA
The “PBM E-score” value of the first is higher: 0.318 for the first, -0.266 for the second.

First: CGCTGCGC
Second: AAGTCGAA
The “PBM E-score” value of the first is higher: -0.141 for the first, -0.145 for the second.

Compared with ATCAATAA, CGTCAAAC is higher in “PBM E-score” value: 0.114 for the first, 0.135 for the second.

First: AACCGCTA
Second: AAACCTTT
The “PBM E-score” value of the first is lower: -0.0725 for the first, -0.0522 for the second.

Going from AAAGATCT to TACTTATA, the “PBM E-score” value rises from -0.0916 to 0.137.

Going from CATGTCGA to TAATTTGA, the “PBM E-score” value rises from -0.167 to 0.07.

First: ATACGTTG
Second: CGCATCAC
The “PBM E-score” value of the first is lower: -0.0291 for the first, 0.0993 for the second.

First: ATCTCGCC
Second: TCCGGCCA
The “PBM E-score” value of the first is lower: -0.335 for the first, -0.177 for the second.

Going from CGGCGGCA to CGGCAGTC, the “PBM E-score” value rises from -0.0641 to 0.0152.

Going from TATAGCCA to CCAGTTCC, the “PBM E-score” value rises from -0.0285 to 0.0243.

First: GCCACGCA
Second: AAGTGTGA
The “PBM E-score” value of the first is lower: -0.0632 for the first, -0.0221 for the second.

First: ATCTGGAA
Second: CCGTACAC
The “PBM E-score” value of the first is higher: 0.208 for the first, -0.0283 for the second.

Compared with CAAGGGGG, ATAGTAAT is higher in “PBM E-score” value: -0.0618 for the first, 0.107 for the second.

Compared with AGACCAGG, AGTTACAA is higher in “PBM E-score” value: -0.147 for the first, 0.157 for the second.

First: TCCTTACA
Second: CGTCCTAC
The “PBM E-score” value of the first is higher: -0.0135 for the first, -0.0953 for the second.

Going from CCCATACC to GAACATCC, the “PBM E-score” value falls from 0.147 to 0.0627.

Compared with AGCGCAAA, AACTAGAT is higher in “PBM E-score” value: 0.0763 for the first, 0.127 for the second.

First: GACGGCGC
Second: GGCATTCA
The “PBM E-score” value of the first is lower: 0.0327 for the first, 0.0626 for the second.

Compared with GCAGTGAC, GTGCTAGA is lower in “PBM E-score” value: -0.0517 for the first, -0.115 for the second.

Compared with GGAAAAAC, TCTATGCA is lower in “PBM E-score” value: 0.322 for the first, -0.0611 for the second.

First: ACACTAAG
Second: CACGCGTA
The “PBM E-score” value of the first is higher: -0.148 for the first, -0.187 for the second.

First: CTGTACCA
Second: AATGCTGC
The “PBM E-score” value of the first is higher: -0.0689 for the first, -0.15 for the second.

First: ATGACGTG
Second: ACGAAGCC
The “PBM E-score” value of the first is lower: -0.156 for the first, -0.0351 for the second.

Compared with GACCACGA, AAACCGGC is higher in “PBM E-score” value: -0.163 for the first, 0.249 for the second.

Compared with CCTATCAC, GCTTGCAC is higher in “PBM E-score” value: -0.128 for the first, -0.00507 for the second.

Going from CGAGACGA to GGCGCCCC, the “PBM E-score” value rises from 0.0089 to 0.00973.

Going from ATTAGGCA to AGGAATAT, the “PBM E-score” value rises from -0.00086 to 0.195.

Going from CATCGCGG to ATGCCATG, the “PBM E-score” value falls from -0.0392 to -0.0497.

Going from TGCTGAAA to AGCGCATC, the “PBM E-score” value falls from 0.24 to -0.0113.

First: AAATCACT
Second: CTGTCTCC
The “PBM E-score” value of the first is higher: 0.133 for the first, -0.127 for the second.

Going from ACGCTCCT to TACAGGTA, the “PBM E-score” value rises from -0.0731 to -0.0644.

Compared with ATCTGGAG, TAGGTTGA is higher in “PBM E-score” value: -0.0625 for the first, 0.114 for the second.

Compared with CCGTGTGC, GCAAGACC is higher in “PBM E-score” value: -0.104 for the first, -0.0946 for the second.

Going from CCTTCGGC to CACATTGG, the “PBM E-score” value rises from -0.129 to -0.118.

First: ATCAATCA
Second: CGGCTGAA
The “PBM E-score” value of the first is higher: 0.203 for the first, -0.0336 for the second.

First: AGCGGCCG
Second: CGGCTTCC
The “PBM E-score” value of the first is higher: -0.0286 for the first, -0.116 for the second.

Compared with AACCCTCA, GCGCTAGC is lower in “PBM E-score” value: 0.0136 for the first, -0.156 for the second.

First: CGCAGCCC
Second: GGACAGCC
The “PBM E-score” value of the first is lower: -0.0745 for the first, 0.0251 for the second.

Going from GGCCGACA to GACCTATA, the “PBM E-score” value falls from -0.00431 to -0.0135.

First: ACTGAACT
Second: AGGCTGCA
The “PBM E-score” value of the first is higher: 0.0759 for the first, -0.118 for the second.

Compared with AGTGCACT, CAGGTTGC is lower in “PBM E-score” value: 0.0766 for the first, 0.00307 for the second.

First: CCGGCTAG
Second: GGCCACCC
The “PBM E-score” value of the first is lower: -0.236 for the first, -0.0512 for the second.

Compared with GGGAGAAA, GTGTATTA is higher in “PBM E-score” value: 0.0409 for the first, 0.25 for the second.

Compared with ACGTATTG, GCACGGAC is lower in “PBM E-score” value: -0.0942 for the first, -0.138 for the second.

Compared with TGCTTACA, ACGGTCTA is lower in “PBM E-score” value: -0.0444 for the first, -0.0856 for the second.

Going from GCTCCGGA to CGCGTCTA, the “PBM E-score” value falls from 0.158 to 0.0356.

Going from AGCAACAG to CACTGTAA, the “PBM E-score” value rises from -0.05 to 0.113.

Going from CTGACACA to ATGTTCAG, the “PBM E-score” value falls from 0.168 to -0.132.

Compared with ATAAGAAG, ACAAGAGT is lower in “PBM E-score” value: 0.158 for the first, -0.0133 for the second.

First: AGGTTCTA
Second: ATCCACGA
The “PBM E-score” value of the first is higher: 0.0347 for the first, -0.0201 for the second.

First: CAAGCAGC
Second: GAGGGGGC
The “PBM E-score” value of the first is higher: -0.072 for the first, -0.26 for the second.

Going from ATACGCCC to CATTACTA, the “PBM E-score” value rises from -0.0463 to 0.00888.

First: CGATAGAA
Second: CTTGGCGC
The “PBM E-score” value of the first is higher: 0.0518 for the first, 0.0285 for the second.

Compared with CATATTGG, AATAAAGC is higher in “PBM E-score” value: 0.0619 for the first, 0.132 for the second.

Compared with GAAATCAA, CAGTTCGC is lower in “PBM E-score” value: 0.161 for the first, 0.0734 for the second.

Compared with GATCAGCA, TAAATCAA is higher in “PBM E-score” value: -0.0725 for the first, 0.213 for the second.

Going from AGGATCGG to AGACCCGC, the “PBM E-score” value rises from 0.00723 to 0.0866.

Compared with ATGAGACG, TGAGCCCA is lower in “PBM E-score” value: 0.171 for the first, -0.216 for the second.

Compared with ACAGAGGA, ACGGATCG is lower in “PBM E-score” value: -0.087 for the first, -0.0932 for the second.

First: AGACCCCA
Second: ACCGGAGG
The “PBM E-score” value of the first is higher: 0.0579 for the first, -0.0753 for the second.

Compared with GAAAATAA, CATTGCTC is lower in “PBM E-score” value: 0.216 for the first, -0.175 for the second.

First: ACCAGGTG
Second: GAGACCCA
The “PBM E-score” value of the first is lower: -0.119 for the first, -0.115 for the second.

Compared with AACTAAGC, GTTCATTA is higher in “PBM E-score” value: -0.0236 for the first, 0.0875 for the second.

Going from GTTTAGAA to CAGTCTTA, the “PBM E-score” value falls from 0.26 to -0.0324.

First: GGCCCGCC
Second: ATCTGAGC
The “PBM E-score” value of the first is higher: 0.0329 for the first, 0.022 for the second.

First: CTGAGATC
Second: AGAAGGAC
The “PBM E-score” value of the first is higher: -0.145 for the first, -0.222 for the second.

Going from GAAAACTC to ATTCGTTC, the “PBM E-score” value rises from -0.0875 to 0.14.
